Some of the results follow. The full chains were built here from the parent and the listed change. Inactive controls read about 0.05.
B1: TEV protease; numbered along this chain (parent)
chain: MGESLFKGPRDYNPISSSICHLTNESDGHTTSLYGIGFGPFIITNKHLFRRNNGTLVVQSLHGVFKVKDTTTLQQHLVDGRDMIIIRMPKDFPPFPQKLKFREPQREERICLVTTNFQTKSMSSMVSDTSCTFPSGDGIFWKHWIQTKDGQCGSPLVSTRDGFIVGIHSASNFTNTNNYFTSVPKNFMELLTNQEAQQWVSGWRLNADSVLWGGHKVFMVKPEEPFQPVKEATQL

Variants of: B1
Assay: raw area under fraction-flipped curve 0-4 h after induction (AUC4h, not background-subtracted), DNA-recorder readout of cleavage of the substrate (dimensionless); higher = more cleavage of the substrate by the protease variant
Settings: temperature: 34 °C; time window: 0-4 h after rhamnose induction
Description: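 In vivo DNA recorder in E. coli TOP10(DE3) ΔrhaA at 34 °C. Each TEVp single-site mutant (parent TEVp 0) is paired with a single-site variant of the 7-mer TEVs (canonical ENLYFQ|S). The substrate sits between flexible linkers in a Bxb1-sfGFP-TEVs-SsrA fusion, so cleavage stabilises Bxb1 and speeds flipping of a recombination array, read by NGS. The value is the raw area under the fraction-flipped curve over 0-4 h after rhamnose induction (AUC4h), with ≥20 reads per time point. It is not background-subtracted; inactive controls average about 0.047.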
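Note: Bxb1 expression induced with 0.2% (w/v) L-rhamnose at OD600 near 0.5, cultures sampled hourly, flipped fraction per protease–substrate barcode pair counted by paired-end Illumina sequencing.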

| Variant | area with substrate ENLYFQA | area with substrate ENLYFQD | area with substrate ENLYFQG | area with substrate ENLYFQI | area with substrate ENLYFQL | area with substrate ENLYFQN | area with substrate ENLYFQR | area with substrate ENLYFQS | area with substrate ENLYFQT | area with substrate ENLYFQV |
| --- | --- | --- | --- | --- | --- | --- | --- | --- | --- | --- |
| K66E | 0.103 | 0.0663 | 0.0906 | 0.0612 | 0.0552 | 0.104 | 0.0733 | 0.109 | 0.065 | 0.0391 |
| D69F | 0.0445 |  | 0.0737 | 0.0624 |  |  |  | 0.0779 | 0.0294 | 0.0602 |
| G37C | 0.101 |  |  | 0.0341 |  |  | 0.0558 | 0.106 |  |  |
| P94V | 0.088 |  |  | 0.0566 |  | 0.0892 | 0.0722 | 0.115 | 0.0743 |  |
| T31I | 0.152 | 0.0502 | 0.104 |  | 0.0635 | 0.0598 | 0.0706 | 0.103 |  | 0.0638 |
| D27E | 0.123 | 0.0671 | 0.105 |  | 0.015 | 0.0548 | 0.0542 | 0.105 | 0.0603 |  |
| E25S | 0.112 | 0.106 | 0.11 | 0.056 | 0.0609 | 0.0756 |  | 0.107 | 0.0749 |  |
| F101I | 0.0742 |  | 0.0849 | 0.0562 | 0.0521 | 0.0026 | 0.052 | 0.0731 | 0.0643 |  |
| G35V | 0.046 |  | 0.0486 | 0.0442 |  |  |  | 0.0459 | 0.0796 |  |
| G35T | 0.0499 |  |  | 0.046 | 0.0399 | 0.0613 | 0.0382 | 0.0455 | 0.0384 | 0.0404 |
| G35D | 0.0492 |  | 0.046 |  |  | 0.0412 |  | 0.0442 |  |  |
| R81V | 0.108 |  |  |  | 0.0507 | 0.0737 |  | 0.098 |  |  |
| G2T | 0.118 |  |  |  |  |  |  | 0.129 |  |  |
| G2F | 0.165 | 0.0807 | 0.153 | 0.0576 | 0.0674 | 0.101 | 0.0614 | 0.143 |  |  |
| G2H | 0.134 |  | 0.112 |  | 0.0648 | 0.103 | 0.0422 | 0.138 | 0.0831 |  |
| Q59H | 0.101 | 0.0659 | 0.0813 | 0.0643 | 0.0577 | 0.0845 | 0.0613 | 0.107 | 0.0635 | 0.0605 |
| Q59N | 0.0707 | 0.063 | 0.0289 |  |  |  | 0.0687 | 0.0942 | 0.0682 | 0.0669 |

Same assay, conditions: temperature: 34 °C; time window: 0-4 h after rhamnose induction

| Variant | area with substrate ENLYFQW | area with substrate ENLYFQY | area with substrate ENLYFQC | area with substrate ENLYFQF | area with substrate ENLYFQM | area with substrate ENLYFQK | area with substrate ENLYFQP | area with substrate ENLYFQQ | area with substrate ENLYFQE | area with substrate ENLYFQH |
| --- | --- | --- | --- | --- | --- | --- | --- | --- | --- | --- |
| K66E | 0.0689 | 0.0999 |  |  |  |  |  |  |  |  |
| D69F |  |  | 0.0827 | 0.0806 |  |  |  |  |  |  |
| G37C |  |  |  |  | 0.0811 |  |  |  |  |  |
| P94V |  | 0.0894 | 0.181 |  |  | 0.0703 |  |  |  |  |
| T31I | 0.0389 |  | 0.12 |  |  | 0.0651 | 0.0463 | 0.064 |  |  |
| D27E | 0.0659 | 0.0906 |  |  | 0.0974 | 0.064 |  |  |  |  |
| E25S | 0.0733 | 0.0936 | 0.105 | 0.121 | 0.115 | 0.0652 | 0.0438 |  |  |  |
| F101I |  |  |  | 0.0681 | 0.0719 |  | 0.0589 |  | 0.0598 |  |
| G35V | 0.0349 |  |  |  | 0.0558 | 0.0487 |  |  |  |  |
| G35T |  | 0.0463 |  |  |  |  |  |  |  |  |
| G35D |  |  |  |  |  | 0.0433 |  |  |  |  |
| R81V |  |  | 0.124 | 0.0705 | 0.0812 |  | 0.0664 | 0.062 |  |  |
| G2T |  |  |  | 0.0617 |  | 0.068 |  |  |  |  |
| G2F | 0.0685 | 0.0855 |  | 0.0796 | 0.107 | 0.0698 | 0.0534 |  |  |  |
| G2H |  |  |  |  | 0.147 | 0.0715 |  |  |  |  |
| Q59H | 0.0634 |  | 0.13 |  |  | 0.0696 |  |  |  | 0.0783 |
| Q59N | 0.0645 | 0.0738 | 0.0963 |  |  | 0.0715 | 0.067 |  |  |  |
